Test results as given in patent US20050009748A1, “Compositions for delivering peptide YY and PYY agonists” (Emisphere Technologies, Inc., priority 2003, published 2005).
Like-named read-outs stand apart in the source and are kept apart here.

How the values were obtained:
[1] = Liquid oral delivery of PYY[3-36] in rats (oral gavage, serum PYY[3-36] radioimmunoassay); conditions: oral gavage solution, 1 ml/kg
Method: SNAC monosodium salt, solid was dissolved in water. The pH of this solution was close to pH 7.5, so no pH adjustments were done. […] The final pH of these solutions was 7.5.
The pH was then lowered to 7.7 by adding HCl (5N). […] The final pH of these solutions varied between 7.5 and 7.6.
Each delivery agent compound (as the free acid or monosodium salts) was dissolved in water. The pH was adjusted to approximately 7.5 by adding HCl (5N) and NaOH (5N) as needed. […] The final pH of these solutions was approximately 7.5.
The typical dosing and sampling protocols were as follows. Male Sprague-Dawley rats weighing between 240-320 g were fasted up to a maximum 24 hours before the experiments and administered ketamine (44 mg/kg) and thorazine (1.5 mg/kg) by intramuscular injection before the test article administration. Afterwards, the anesthetized animals were administered the test article by oral gavage. A dosing group of five animals was administered one of the dosing solutions. For oral gavage (PO), an 11 cm Rusch 8 French catheter was adapted to a 1 ml syringe with a pipette tip. The syringe was filled with dosing solution by drawing the solution through the catheter, which was then wiped dry. The catheter was placed down the esophagus leaving 1 cm of tubing past the incisors. The dosing solution was administered by pressing the syringe plunger.
Blood samples were collected serially from the tail artery, or by cardiac puncture, typically at time=0, 15, 30, 45, 60 and 90 minutes. […] Results from the animals in each group were averaged for each time point.

[2] = Solid oral delivery of PYY[3-36] in feed restricted rats (serum PYY radioimmunoassay); assay type: in vivo, Male Sprague Dawley rats; conditions: 1 tablet per animal, PYY[3-36] 0.3 mg/kg
Method: An oral dosing tube was used.
Blood samples were collected serially from the tail artery, by cardiac puncture, or as in this case by retro-orbitally, typically at time=0, 15, 30, 60 and 90 minutes.

[3] = Rhesus monkeys, oral solid dose, PYY[3-36] 1 mg/tablet
Source text: Results from the animals in each group were averaged for each time point.

[4] = Delivery Agent 200 mg/kg, PYY[3-36] 0.3 mg/kg

In the case of `COc1ccc(O)c(C(=O)NCCCCCCCC(=O)O)c1` [Delivery Agent 11, 8-(2-hydroxy-5-methoxybenzoylatnino)octanoic acid], the “Mean Peak Serum [PYY(3-36)] (pg/ml) ± SD” value [1, 4] was 871.484 ± 119.461 pg/mL and the “Mean serum peak of PYY (pg/ml) ± SD” value ([2]; Delivery Agent 100 mg/kg) was 2330.63 ± 963.7 pg/mL.
For `O=C(O)CCCCCCCOc1ccc(O)cc1` [Delivery Agent 17, 8-(4-hydroxyphenoxy)octanoate], the “Mean serum peak of PYY (pg/ml) ± SD” value ([2]; Delivery Agent 50 mg/kg, listed as 17) was 581.62 ± 236.94 pg/mL.
In the case of `OCCN(CCO)CCCCCCCCOc1ccccc1O` [Delivery Agent 15, 8-(2-Hydroxyphenoxy)octyl-diethanolamine], the “Mean Peak Serum [PYY(3-36)] (pg/ml) ± SD” value [1, 4] was 705.106 ± 75.906 pg/mL.
For `O=C(O)CCCCCCCNC(=O)c1ccccc1O` [Delivery Agent 1, N-(8-[2-hydroxybenzoyl]-amino)caprylic acid], the “Mean serum peak of PYY (pg/ml) ± SD” value ([3]; 1 tablet per animal, Delivery Agent 50 mg/tablet, per animal 50/1 mg) was 969 ± 60.72 pg/mL, the “Mean serum peak of PYY (pg/ml) ± SD” value ([3]; 1 tablet per animal, Delivery Agent 100 mg/tablet, per animal 100/1 mg) was 757.8 ± 441.02 pg/mL and the “Mean serum peak of PYY (pg/ml) ± SD” value ([3]; 2 tablet per animal, Delivery Agent 50 mg/tablet, per animal 100/2 mg) was 1030.9 ± 76.88 pg/mL. For the same compound, the “Mean Peak Serum [PYY(3-36)] (pg/ml) ± SD” value ([1]; Delivery Agent 100 mg/kg, PYY[3-36] 0.1 mg/kg) was 233.03 ± 127.5 pg/mL, the “Mean Peak Serum [PYY(3-36)] (pg/ml) ± SD” value ([1]; Delivery Agent 100 mg/kg, PYY[3-36] 0.5 mg/kg) was 235.75 ± 181.7 pg/mL and the “Mean Peak Serum [PYY(3-36)] (pg/ml) ± SD” value ([1]; Delivery Agent 200 mg/kg, PYY[3-36] 0.1 mg/kg) was 313.14 ± 151.8 pg/mL. For the same compound, the “Mean Peak Serum [PYY(3-36)] (pg/ml) ± SD” value ([1]; Delivery Agent 200 mg/kg, PYY[3-36] 0.5 mg/kg) was 442.098 ± 78.4 pg/mL and the “Mean serum peak of PYY (pg/ml) ± SD” value ([2]; Delivery Agent 100 mg/kg) was 830.24 ± 341.32 pg/mL.
